{"source": "the supplement of paper PMC8728848", "binders": {"B1": {"name": "ECA (Erythrina cristagalli), P83410 (protein)", "chain": "VETISFSFSEFEPGNDNLTLQGAALITQSGVLQLTKINQNGMPAWDSTGRTLYTKPVHMWDSTTGTVASFETRFSFSIEQPYTRPLPADGLVFFMGPTKSKPAQGYGYLGVFNNSKQDNSYQTLAVEFDTFSNPWDPPQVPHIGIDVNSIRSIKTQPFQLDNGQVANVVIKYDAPSKILHVVLVYPSSGAIYTIAEIVDVKQVLPDWVDVGLSGATGAQRDAAETHDVYSWSFQASLPE"}}, "assay_in_all_cases": "glycan array binding signal (z-score within array); higher = stronger binding", "settings_in_all_cases": "glycan notation: IUPAC condensed, linker removed", "key": {"[1]": {"molecular_target": "Gal(b1-4)GlcNAc(b1-3)Gal(b1-3)GlcNAc", "outline": "(§1)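 Glycan array data came from 3228 arrays in the Consortium for Functional Glycomics database, and only arrays with an available protein sequence were kept. Glycan names were put into IUPAC-condensed notation, and columns mapping to the same glycan were averaged. The binding signal is a within-array Z-score, averaged across arrays of one protein sequence run at different concentrations or buffers and across linkers. A negative Z-score can be read as non-binding.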"}, "[2]": {"molecular_target": "Gal(b1-4)GlcNAc(b1-3)Gal(b1-4)Glc", "outline": "as §1"}, "[3]": {"molecular_target": "Gal(b1-4)GlcNAc(b1-3)Gal(b1-4)GlcNAc", "outline": "as §1"}, "[4]": {"molecular_target": "Gal(b1-4)GlcNAc(b1-3)Gal(b1-4)GlcNAc(b1-2)Man(a1-3)[Gal(b1-4)GlcNAc(b1-3)Gal(b1-4)GlcNAc(b1-2)Man(a1-6)]Man(b1-4)GlcNAc(b1-4)GlcNAc", "outline": "as §1"}, "[5]": {"molecular_target": "Gal(b1-4)GlcNAc(b1-3)Gal(b1-4)GlcNAc(b1-2)Man(a1-3)[Gal(b1-4)GlcNAc(b1-3)Gal(b1-4)GlcNAc(b1-2)Man(a1-6)]Man(b1-4)GlcNAc(b1-4)[Fuc(a1-6)]GlcNAc", "outline": "as §1"}, "[6]": {"molecular_target": "Gal(b1-4)GlcNAc(b1-3)Gal(b1-4)GlcNAc(b1-2)[Gal(b1-4)GlcNAc(b1-3)Gal(b1-4)GlcNAc(b1-6)]Man(a1-6)[Gal(b1-4)GlcNAc(b1-3)Gal(b1-4)GlcNAc(b1-2)Man(a1-3)]Man(b1-4)GlcNAc(b1-4)GlcNAc", "outline": "as §1"}, "[7]": {"molecular_target": "Gal(b1-4)GlcNAc(b1-3)Gal(b1-4)GlcNAc(b1-2)[Gal(b1-4)GlcNAc(b1-3)Gal(b1-4)GlcNAc(b1-6)]Man(a1-6)[Gal(b1-4)GlcNAc(b1-3)Gal(b1-4)GlcNAc(b1-2)Man(a1-3)]Man(b1-4)GlcNAc(b1-4)[Fuc(a1-6)]GlcNAc", "outline": "as §1"}, "[8]": {"molecular_target": "Gal(b1-4)GlcNAc(b1-3)Gal(b1-4)GlcNAc(b1-3)Gal(b1-4)GlcNAc", "outline": "as §1"}, "[9]": {"molecular_target": "Gal(b1-4)GlcNAc(b1-3)Gal(b1-4)GlcNAc(b1-3)Gal(b1-4)GlcNAc(b1-2)Man(a1-3)[Gal(b1-4)GlcNAc(b1-3)Gal(b1-4)GlcNAc(b1-3)Gal(b1-4)GlcNAc(b1-2)Man(a1-6)]Man(b1-4)GlcNAc(b1-4)GlcNAc", "outline": "as §1"}, "[10]": {"molecular_target": "Gal(b1-4)GlcNAc(b1-3)Gal(b1-4)GlcNAc(b1-3)Gal(b1-4)GlcNAc(b1-2)Man(a1-3)[Gal(b1-4)GlcNAc(b1-3)Gal(b1-4)GlcNAc(b1-3)Gal(b1-4)GlcNAc(b1-2)Man(a1-6)]Man(b1-4)GlcNAc(b1-4)[Fuc(a1-6)]GlcNAc", "outline": "as §1"}, "[11]": {"molecular_target": "Gal(b1-4)GlcNAc(b1-3)Gal(b1-4)GlcNAc(b1-3)Gal(b1-4)GlcNAc(b1-2)[Gal(b1-4)GlcNAc(b1-3)Gal(b1-4)GlcNAc(b1-3)Gal(b1-4)GlcNAc(b1-6)]Man(a1-6)[Gal(b1-4)GlcNAc(b1-3)Gal(b1-4)GlcNAc(b1-3)Gal(b1-4)GlcNAc(b1-2)Man(a1-3)]Man(b1-4)GlcNAc(b1-4)[Fuc(a1-6)]GlcNAc", "outline": "as §1"}, "[12]": {"molecular_target": "Gal(b1-4)GlcNAc(b1-3)Gal(b1-4)GlcNAc(b1-3)Gal(b1-4)GlcNAc(b1-3)Gal(b1-4)GlcNAc(b1-2)Man(a1-3)[Gal(b1-4)GlcNAc(b1-3)Gal(b1-4)GlcNAc(b1-3)Gal(b1-4)GlcNAc(b1-3)Gal(b1-4)GlcNAc(b1-2)Man(a1-6)]Man(b1-4)GlcNAc(b1-4)GlcNAc", "outline": "as §1"}, "[13]": {"molecular_target": "Gal(b1-4)GlcNAc(b1-3)Gal(b1-4)GlcNAc(b1-3)Gal(b1-4)GlcNAc(b1-3)Gal(b1-4)GlcNAc(b1-2)Man(a1-3)[Gal(b1-4)GlcNAc(b1-3)Gal(b1-4)GlcNAc(b1-3)Gal(b1-4)GlcNAc(b1-3)Gal(b1-4)GlcNAc(b1-2)Man(a1-6)]Man(b1-4)GlcNAc(b1-4)[Fuc(a1-6)]GlcNAc", "outline": "as §1"}, "[14]": {"molecular_target": "Gal(b1-4)GlcNAc(b1-3)Gal(b1-4)GlcNAc(b1-3)Gal(b1-4)GlcNAc(b1-3)Gal(b1-4)GlcNAc(b1-2)[Gal(b1-4)GlcNAc(b1-3)Gal(b1-4)GlcNAc(b1-3)Gal(b1-4)GlcNAc(b1-3)Gal(b1-4)GlcNAc(b1-6)]Man(a1-6)[Gal(b1-4)GlcNAc(b1-3)Gal(b1-4)GlcNAc(b1-3)Gal(b1-4)GlcNAc(b1-3)Gal(b1-4)GlcNAc(b1-2)Man(a1-3)]Man(b1-4)GlcNAc(b1-4)[Fuc(a1-6)]GlcNAc", "outline": "as §1"}, "[15]": {"molecular_target": "Gal(b1-4)GlcNAc(b1-3)Gal(b1-4)GlcNAc(b1-3)Gal(b1-4)GlcNAc(b1-3)Gal(b1-4)GlcNAc(b1-3)Gal(b1-4)GlcNAc(b1-2)Man(a1-3)[Gal(b1-4)GlcNAc(b1-3)Gal(b1-4)GlcNAc(b1-3)Gal(b1-4)GlcNAc(b1-3)Gal(b1-4)GlcNAc(b1-3)Gal(b1-4)GlcNAc(b1-2)Man(a1-6)]Man(b1-4)GlcNAc(b1-4)GlcNAc", "outline": "as §1"}, "[16]": {"molecular_target": "Gal(b1-4)GlcNAc(b1-3)Gal(b1-4)GlcNAc(b1-3)Gal(b1-4)GlcNAc(b1-3)Gal(b1-4)GlcNAc(b1-3)Gal(b1-4)GlcNAc(b1-2)Man(a1-3)[Gal(b1-4)GlcNAc(b1-3)Gal(b1-4)GlcNAc(b1-3)Gal(b1-4)GlcNAc(b1-3)Gal(b1-4)GlcNAc(b1-3)Gal(b1-4)GlcNAc(b1-2)Man(a1-6)]Man(b1-4)GlcNAc(b1-4)[Fuc(a1-6)]GlcNAc", "outline": "as §1"}, "[17]": {"molecular_target": "Gal(b1-4)GlcNAc(b1-3)Gal(b1-4)GlcNAc(b1-3)Gal(b1-4)GlcNAc(b1-3)Gal(b1-4)GlcNAc(b1-3)Gal(b1-4)GlcNAc(b1-2)[Gal(b1-4)GlcNAc(b1-3)Gal(b1-4)GlcNAc(b1-3)Gal(b1-4)GlcNAc(b1-3)Gal(b1-4)GlcNAc(b1-3)Gal(b1-4)GlcNAc(b1-6)]Man(a1-6)[Gal(b1-4)GlcNAc(b1-3)Gal(b1-4)GlcNAc(b1-3)Gal(b1-4)GlcNAc(b1-3)Gal(b1-4)GlcNAc(b1-3)Gal(b1-4)GlcNAc(b1-2)Man(a1-3)]Man(b1-4)GlcNAc(b1-4)[Fuc(a1-6)]GlcNAc", "outline": "as §1"}, "[18]": {"molecular_target": "Gal(b1-4)GlcNAc(b1-3)Gal(b1-4)GlcNAc(b1-3)Gal(b1-4)GlcNAc(b1-3)Gal(b1-4)GlcNAc(b1-3)Gal(b1-4)GlcNAc(b1-3)Gal(b1-4)GlcNAc(b1-2)Man(a1-3)[Gal(b1-4)GlcNAc(b1-3)Gal(b1-4)GlcNAc(b1-3)Gal(b1-4)GlcNAc(b1-3)Gal(b1-4)GlcNAc(b1-3)Gal(b1-4)GlcNAc(b1-3)Gal(b1-4)GlcNAc(b1-2)Man(a1-6)]Man(b1-4)GlcNAc(b1-4)GlcNAc", "outline": "as §1"}, "[19]": {"molecular_target": "Gal(b1-4)GlcNAc(b1-3)Gal(b1-4)GlcNAc(b1-3)GalNAc", "outline": "as §1"}, "[20]": {"molecular_target": "Gal(b1-4)GlcNAc(b1-3)Gal(b1-4)GlcNAc(b1-3)[Gal(b1-4)GlcNAc(b1-3)Gal(b1-4)GlcNAc(b1-6)]GalNAc", "outline": "as §1"}, "[21]": {"molecular_target": "Gal(b1-4)GlcNAc(b1-3)Gal(b1-4)GlcNAc(b1-6)[Gal(b1-3)]GalNAc", "outline": "as §1"}, "[22]": {"molecular_target": "Gal(b1-4)GlcNAc(b1-3)Gal(b1-4)[Fuc(a1-3)]GlcNAc(b1-3)Gal(b1-4)[Fuc(a1-3)]GlcNAc", "outline": "as §1"}}, "note": "Some of the results follow.", "data": [{"binder": "B1", "values": [{"measurement": "glycan array binding signal (z-score)", "setting": "[1]", "result": 0.087}, {"measurement": "glycan array binding signal (z-score)", "setting": "[2]", "result": 2.06}, {"measurement": "glycan array binding signal (z-score)", "setting": "[3]", "result": 1.99}, {"measurement": "glycan array binding signal (z-score)", "setting": "[4]", "result": 3.88}, {"measurement": "glycan array binding signal (z-score)", "setting": "[5]", "result": 0.465}, {"measurement": "glycan array binding signal (z-score)", "setting": "[6]", "result": 0.758}, {"measurement": "glycan array binding signal (z-score)", "setting": "[7]", "result": 0.699}, {"measurement": "glycan array binding signal (z-score)", "setting": "[8]", "result": 0.952}, {"measurement": "glycan array binding signal (z-score)", "setting": "[9]", "result": 4.58}, {"measurement": "glycan array binding signal (z-score)", "setting": "[10]", "result": 0.523}, {"measurement": "glycan array binding signal (z-score)", "setting": "[11]", "result": 1.81}, {"measurement": "glycan array binding signal (z-score)", "setting": "[12]", "result": 2.22}, {"measurement": "glycan array binding signal (z-score)", "setting": "[13]", "result": 0.87}, {"measurement": "glycan array binding signal (z-score)", "setting": "[14]", "result": 0.893}, {"measurement": "glycan array binding signal (z-score)", "setting": "[15]", "result": 0.388}, {"measurement": "glycan array binding signal (z-score)", "setting": "[16]", "result": 0.209}, {"measurement": "glycan array binding signal (z-score)", "setting": "[17]", "result": 2.44}, {"measurement": "glycan array binding signal (z-score)", "setting": "[18]", "result": 0.267}, {"measurement": "glycan array binding signal (z-score)", "setting": "[19]", "result": 2.11}, {"measurement": "glycan array binding signal (z-score)", "setting": "[20]", "result": 4.2}, {"measurement": "glycan array binding signal (z-score)", "setting": "[21]", "result": 4.88}, {"measurement": "glycan array binding signal (z-score)", "setting": "[22]", "result": 1.88}]}]}
